# Measurements published in the supplement of paper PMC8728848.
# This is one part of the list.
# B1: PX9937F-bfa-516-16-516 (Bacteroides fragilis) (protein)
# chain: LDIDPTSSIADSNYWKTEAQFSTFNVGLHALLRECSFNFFLLGEPRADIYGDVPFGGEATQGMERLPFNTINKENTGISNFAGMYKVINQINLMIAKTKETTVLSEAGKNYYLGEAYGMRAYLYFHLLRSWGDVILYLDYTNGASLDLSNLSKAASPAEEVMKQIKEDITASEKGFGSDYSFKYGRYYWSMAATQMLKGEVYLWSGRQMGGGTADYTTAKTALQSIVSNANVSLQDDFSKVFAYNNKDNSEIIFSIRNAKDEYNMWDDRFRQNLVPQQAYMTSTYCNKEGVSFKDLPEGQLNGLIRLQIRYDLYNKAFRDGDTRKDASMTAVYQKQQDGTVKYIAPFCNKYQGVLLDGASQRSFLNDYPIYRYADCLLLLAEAKALLGEDPTAEINQVRERAYGKEFFEANKATLAYPNDKGDFYTDNKYMSGDEDPLEAILKERMREFMFEGKRWYDLRLLGADYVTKRTSAVATRLLWPINESVLTDNPALKQTPGYQN
# Assays:
# Assay in all cases: glycan array binding signal (z-score within array); higher = stronger binding
# Conditions in all cases: glycan notation: IUPAC condensed, linker removed
# [1] = biological target: GlcNAc(a1-4)Gal(b1-3)GlcNAc
# Method in brief: (§1)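 Glycan array binding is given as a within-array Z-score, which can be read as non-binding when negative. The arrays, 3228 of them, came from the Consortium for Functional Glycomics database and were retained only where the protein sequence was available. Z-scores were averaged across arrays of the same protein sequence at different concentrations or buffers and across linkers.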
# [2] = biological target: GlcNAc(a1-4)Gal(b1-4)GalNAc
# Method in brief: as §1
# [3] = biological target: GlcNAc(a1-4)Gal(b1-4)GlcNAc
# Method in brief: as §1
# [4] = biological target: GlcNAc(a1-4)Gal(b1-4)GlcNAc(b1-3)Gal(b1-4)Glc
# Method in brief: as §1
# [5] = biological target: GlcNAc(a1-4)Gal(b1-4)GlcNAc(b1-3)Gal(b1-4)GlcNAc
# Method in brief: as §1
# [6] = biological target: GlcNAc(a1-4)Gal(b1-4)GlcNAc(b1-3)Gal(b1-4)GlcNAc(b1-3)Gal(b1-4)GlcNAc
# Method in brief: as §1
# [7] = biological target: GlcNAc(a1-4)Gal(b1-4)GlcNAc(b1-3)Gal(b1-4)[Fuc(a1-3)]GlcNAc(b1-3)Gal(b1-4)[Fuc(a1-3)]GlcNAc
# Method in brief: as §1
# [8] = biological target: GlcNAc(a1-6)Gal(b1-4)GlcNAc
# Method in brief: as §1
# [9] = biological target: GlcNAc(b1-2)Gal(b1-3)GalNAc
# Method in brief: as §1
# [10] = biological target: GlcNAc(b1-2)Man(a1-3)[GlcNAc(b1-2)Man(a1-6)]Man(b1-4)GlcNAc(b1-4)GlcNAc
# Method in brief: as §1
# [11] = biological target: GlcNAc(b1-2)Man(a1-3)[GlcNAc(b1-2)Man(a1-6)]Man(b1-4)GlcNAc(b1-4)[Fuc(a1-6)]GlcNAc
# Method in brief: as §1
# [12] = biological target: GlcNAc(b1-2)Man(a1-3)[GlcNAc(b1-4)][GlcNAc(b1-2)Man(a1-6)]Man(b1-4)GlcNAc(b1-4)GlcNAc
# Method in brief: as §1
# [13] = biological target: GlcNAc(b1-2)Man(a1-3)[GlcNAc(b1-4)][GlcNAc(b1-2)Man(a1-6)]Man(b1-4)GlcNAc(b1-4)[Fuc(a1-6)]GlcNAc
# Method in brief: as §1
# [14] = biological target: GlcNAc(b1-2)[GlcNAc(b1-4)]Man(a1-3)[GlcNAc(b1-2)Man(a1-6)]Man(b1-4)GlcNAc(b1-4)GlcNAc
# Method in brief: as §1
# [15] = biological target: GlcNAc(b1-2)[GlcNAc(b1-4)]Man(a1-3)[GlcNAc(b1-4)][GlcNAc(b1-2)Man(a1-6)]Man(b1-4)GlcNAc(b1-4)GlcNAc
# Method in brief: as §1
# [16] = biological target: GlcNAc(b1-2)[GlcNAc(b1-4)]Man(a1-3)[GlcNAc(b1-4)][GlcNAc(b1-2)[GlcNAc(b1-6)]Man(a1-6)]Man(b1-4)GlcNAc(b1-4)GlcNAc
# Method in brief: as §1
# [17] = biological target: GlcNAc(b1-2)[GlcNAc(b1-4)]Man(a1-3)[GlcNAc(b1-4)][GlcNAc(b1-2)[GlcNAc(b1-6)]Man(a1-6)]Man(b1-4)GlcNAc(b1-4)[Fuc(a1-6)]GlcNAc
# Method in brief: as §1
# [18] = biological target: GlcNAc(b1-2)[GlcNAc(b1-6)]Man(a1-6)[GlcNAc(b1-2)Man(a1-3)]Man(b1-4)GlcNAc(b1-4)GlcNAc
# Method in brief: as §1
# [19] = biological target: GlcNAc(b1-2)[GlcNAc(b1-6)]Man(a1-6)[GlcNAc(b1-2)Man(a1-3)]Man(b1-4)GlcNAc(b1-4)[Fuc(a1-6)]GlcNAc
# Method in brief: as §1
# [20] = biological target: GlcNAc(b1-2)[GlcNAc(b1-6)]Man(a1-6)[GlcNAc(b1-4)][GlcNAc(b1-2)Man(a1-3)]Man(b1-4)GlcNAc(b1-4)GlcNAc
# Method in brief: as §1
# [21] = biological target: GlcNAc(b1-3)Fuc
# Method in brief: as §1
# [22] = biological target: GlcNAc(b1-3)Gal
# Method in brief: as §1
# [23] = biological target: GlcNAc(b1-3)Gal(b1-3)GalNAc
# Method in brief: as §1
# [24] = biological target: GlcNAc(b1-3)Gal(b1-4)Glc
# Method in brief: as §1
# [25] = biological target: GlcNAc(b1-3)Gal(b1-4)GlcNAc
# Method in brief: as §1
# [26] = biological target: GlcNAc(b1-3)Gal(b1-4)GlcNAc(b1-2)Man(a1-3)[GlcNAc(b1-3)Gal(b1-4)GlcNAc(b1-2)Man(a1-6)]Man(b1-4)GlcNAc(b1-4)GlcNAc
# Method in brief: as §1
# [27] = biological target: GlcNAc(b1-3)Gal(b1-4)GlcNAc(b1-2)Man(a1-3)[GlcNAc(b1-3)Gal(b1-4)GlcNAc(b1-2)Man(a1-6)]Man(b1-4)GlcNAc(b1-4)[Fuc(a1-6)]GlcNAc
# Method in brief: as §1
# [28] = biological target: GlcNAc(b1-3)Gal(b1-4)GlcNAc(b1-2)[GlcNAc(b1-3)Gal(b1-4)GlcNAc(b1-6)]Man(a1-6)[GlcNAc(b1-3)Gal(b1-4)GlcNAc(b1-2)Man(a1-3)]Man(b1-4)GlcNAc(b1-4)GlcNAc
# Method in brief: as §1
# [29] = biological target: GlcNAc(b1-3)Gal(b1-4)GlcNAc(b1-3)Gal(b1-4)GlcNAc
# Method in brief: as §1
# [30] = biological target: GlcNAc(b1-3)Gal(b1-4)GlcNAc(b1-3)Gal(b1-4)GlcNAc(b1-2)Man(a1-3)[GlcNAc(b1-3)Gal(b1-4)GlcNAc(b1-3)Gal(b1-4)GlcNAc(b1-2)Man(a1-6)]Man(b1-4)GlcNAc(b1-4)GlcNAc
# Method in brief: as §1
# [31] = biological target: GlcNAc(b1-3)Gal(b1-4)GlcNAc(b1-3)Gal(b1-4)GlcNAc(b1-2)Man(a1-3)[GlcNAc(b1-3)Gal(b1-4)GlcNAc(b1-3)Gal(b1-4)GlcNAc(b1-2)Man(a1-6)]Man(b1-4)GlcNAc(b1-4)[Fuc(a1-6)]GlcNAc
# Method in brief: as §1
# [32] = biological target: GlcNAc(b1-3)Gal(b1-4)GlcNAc(b1-3)Gal(b1-4)GlcNAc(b1-2)[GlcNAc(b1-3)Gal(b1-4)GlcNAc(b1-3)Gal(b1-4)GlcNAc(b1-6)]Man(a1-6)[GlcNAc(b1-3)Gal(b1-4)GlcNAc(b1-3)Gal(b1-4)GlcNAc(b1-2)Man(a1-3)]Man(b1-4)GlcNAc(b1-4)[Fuc(a1-6)]GlcNAc
# Method in brief: as §1
# [33] = biological target: GlcNAc(b1-3)Gal(b1-4)GlcNAc(b1-3)Gal(b1-4)GlcNAc(b1-3)Gal(b1-4)GlcNAc(b1-2)Man(a1-3)[GlcNAc(b1-3)Gal(b1-4)GlcNAc(b1-3)Gal(b1-4)GlcNAc(b1-3)Gal(b1-4)GlcNAc(b1-2)Man(a1-6)]Man(b1-4)GlcNAc(b1-4)GlcNAc
# Method in brief: as §1
# [34] = biological target: GlcNAc(b1-3)Gal(b1-4)GlcNAc(b1-3)Gal(b1-4)GlcNAc(b1-3)Gal(b1-4)GlcNAc(b1-2)Man(a1-3)[GlcNAc(b1-3)Gal(b1-4)GlcNAc(b1-3)Gal(b1-4)GlcNAc(b1-3)Gal(b1-4)GlcNAc(b1-2)Man(a1-6)]Man(b1-4)GlcNAc(b1-4)[Fuc(a1-6)]GlcNAc
# Method in brief: as §1
# [35] = biological target: GlcNAc(b1-3)Gal(b1-4)GlcNAc(b1-3)Gal(b1-4)GlcNAc(b1-3)Gal(b1-4)GlcNAc(b1-2)[GlcNAc(b1-3)Gal(b1-4)GlcNAc(b1-3)Gal(b1-4)GlcNAc(b1-3)Gal(b1-4)GlcNAc(b1-6)]Man(a1-6)[GlcNAc(b1-3)Gal(b1-4)GlcNAc(b1-3)Gal(b1-4)GlcNAc(b1-3)Gal(b1-4)GlcNAc(b1-2)Man(a1-3)]Man(b1-4)GlcNAc(b1-4)[Fuc(a1-6)]GlcNAc
# Method in brief: as §1
# [36] = biological target: GlcNAc(b1-3)Gal(b1-4)GlcNAc(b1-3)Gal(b1-4)GlcNAc(b1-3)Gal(b1-4)GlcNAc(b1-3)Gal(b1-4)GlcNAc(b1-2)Man(a1-3)[GlcNAc(b1-3)Gal(b1-4)GlcNAc(b1-3)Gal(b1-4)GlcNAc(b1-3)Gal(b1-4)GlcNAc(b1-3)Gal(b1-4)GlcNAc(b1-2)Man(a1-6)]Man(b1-4)GlcNAc(b1-4)GlcNAc
# Method in brief: as §1
# [37] = biological target: GlcNAc(b1-3)Gal(b1-4)GlcNAc(b1-3)Gal(b1-4)GlcNAc(b1-3)Gal(b1-4)GlcNAc(b1-3)Gal(b1-4)GlcNAc(b1-2)Man(a1-3)[GlcNAc(b1-3)Gal(b1-4)GlcNAc(b1-3)Gal(b1-4)GlcNAc(b1-3)Gal(b1-4)GlcNAc(b1-3)Gal(b1-4)GlcNAc(b1-2)Man(a1-6)]Man(b1-4)GlcNAc(b1-4)[Fuc(a1-6)]GlcNAc
# Method in brief: as §1
# [38] = biological target: GlcNAc(b1-3)Gal(b1-4)GlcNAc(b1-3)Gal(b1-4)GlcNAc(b1-3)Gal(b1-4)GlcNAc(b1-3)Gal(b1-4)GlcNAc(b1-2)[GlcNAc(b1-3)Gal(b1-4)GlcNAc(b1-3)Gal(b1-4)GlcNAc(b1-3)Gal(b1-4)GlcNAc(b1-3)Gal(b1-4)GlcNAc(b1-6)]Man(a1-6)[GlcNAc(b1-3)Gal(b1-4)GlcNAc(b1-3)Gal(b1-4)GlcNAc(b1-3)Gal(b1-4)GlcNAc(b1-3)Gal(b1-4)GlcNAc(b1-2)Man(a1-3)]Man(b1-4)GlcNAc(b1-4)[Fuc(a1-6)]GlcNAc
# Method in brief: as §1
binder,measurement,setting,value
B1,glycan array binding signal (z-score),[1],-0.371
same,glycan array binding signal (z-score),[2],0.087
same,glycan array binding signal (z-score),[3],-0.276
same,glycan array binding signal (z-score),[4],-0.323
same,glycan array binding signal (z-score),[5],-0.389
same,glycan array binding signal (z-score),[6],-0.359
same,glycan array binding signal (z-score),[7],0.511
same,glycan array binding signal (z-score),[8],-0.345
same,glycan array binding signal (z-score),[9],-0.311
same,glycan array binding signal (z-score),[10],-0.224
same,glycan array binding signal (z-score),[11],-0.054
same,glycan array binding signal (z-score),[12],0.059
same,glycan array binding signal (z-score),[13],-0.363
same,glycan array binding signal (z-score),[14],-0.247
same,glycan array binding signal (z-score),[15],-0.144
same,glycan array binding signal (z-score),[16],-0.291
same,glycan array binding signal (z-score),[17],-0.302
same,glycan array binding signal (z-score),[18],0.071
same,glycan array binding signal (z-score),[19],-0.191
same,glycan array binding signal (z-score),[20],-0.368
same,glycan array binding signal (z-score),[21],-0.267
same,glycan array binding signal (z-score),[22],-0.462
same,glycan array binding signal (z-score),[23],0.075
same,glycan array binding signal (z-score),[24],-0.403
same,glycan array binding signal (z-score),[25],-0.247
same,glycan array binding signal (z-score),[26],-0.089
same,glycan array binding signal (z-score),[27],1.82
same,glycan array binding signal (z-score),[28],-0.073
same,glycan array binding signal (z-score),[29],-0.275
same,glycan array binding signal (z-score),[30],0.054
same,glycan array binding signal (z-score),[31],-0.201
same,glycan array binding signal (z-score),[32],-0.078
same,glycan array binding signal (z-score),[33],0.988
same,glycan array binding signal (z-score),[34],-0.099
same,glycan array binding signal (z-score),[35],0.224
same,glycan array binding signal (z-score),[36],-0.089
same,glycan array binding signal (z-score),[37],-0.049
same,glycan array binding signal (z-score),[38],0.188
